The text below walks through data of publication PMC4336329 (PLoS ONE, 2015).

About 2,200 (0.71%) of roughly 310,000 compounds showed an effect of 50% or more. Effects have a minus sign here. The list shows a part of the results.

human ether-à-go-go-related gene (hERG) potassium channel, sequence (Q12809 whole entry, looked up): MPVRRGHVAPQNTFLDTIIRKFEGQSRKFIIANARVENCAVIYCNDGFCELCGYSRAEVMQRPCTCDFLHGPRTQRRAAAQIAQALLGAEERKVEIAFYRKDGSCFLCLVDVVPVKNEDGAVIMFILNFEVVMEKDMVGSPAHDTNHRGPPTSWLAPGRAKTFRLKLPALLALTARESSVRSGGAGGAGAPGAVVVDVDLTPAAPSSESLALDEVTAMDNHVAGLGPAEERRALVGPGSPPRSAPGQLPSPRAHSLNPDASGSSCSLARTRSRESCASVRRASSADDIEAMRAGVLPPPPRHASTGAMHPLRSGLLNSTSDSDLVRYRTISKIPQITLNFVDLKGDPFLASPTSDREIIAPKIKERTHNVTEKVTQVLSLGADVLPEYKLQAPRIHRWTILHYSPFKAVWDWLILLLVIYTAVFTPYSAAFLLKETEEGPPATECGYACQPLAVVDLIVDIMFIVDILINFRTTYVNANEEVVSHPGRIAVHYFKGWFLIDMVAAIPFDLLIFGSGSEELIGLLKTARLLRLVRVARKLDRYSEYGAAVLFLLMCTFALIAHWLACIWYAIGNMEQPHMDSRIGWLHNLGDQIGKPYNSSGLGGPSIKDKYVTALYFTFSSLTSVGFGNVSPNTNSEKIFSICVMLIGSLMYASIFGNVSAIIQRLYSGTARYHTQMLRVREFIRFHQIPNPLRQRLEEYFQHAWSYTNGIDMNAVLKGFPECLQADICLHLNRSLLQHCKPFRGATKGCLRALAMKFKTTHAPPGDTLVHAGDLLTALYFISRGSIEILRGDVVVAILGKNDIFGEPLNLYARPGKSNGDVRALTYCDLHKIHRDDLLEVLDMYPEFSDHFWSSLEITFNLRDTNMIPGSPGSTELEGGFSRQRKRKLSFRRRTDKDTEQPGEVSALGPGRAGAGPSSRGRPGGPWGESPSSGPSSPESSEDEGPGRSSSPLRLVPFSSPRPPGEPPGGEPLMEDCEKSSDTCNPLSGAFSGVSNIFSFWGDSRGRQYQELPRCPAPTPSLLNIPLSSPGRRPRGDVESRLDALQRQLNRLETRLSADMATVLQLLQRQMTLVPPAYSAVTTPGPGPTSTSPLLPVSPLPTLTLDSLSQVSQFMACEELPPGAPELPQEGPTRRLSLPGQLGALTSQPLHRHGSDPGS

The assay concerns the target human ether-à-go-go-related gene (hERG) potassium channel (human, UniProt Q12809). Briefly: primary screen, population patch clamp on CHO cells stably expressing hERG.
Regarding `CCOc1cccc(C2C(C(=O)c3cccs3)=C(O)C(=O)N2Cc2cccnc2)c1` (stereo not shown), the “hERG current change (%, negative = inhibition) at 1uM” value is 17.4%.
The same measure for `C=CCn1c(COc2ccc(F)cc2)nnc1SCC(=O)N1CC(=O)Nc2ccccc21`: -12%; for `CCOc1ccc(-c2nnn(CC(=O)Nc3cc(OC)cc(OC)c3)n2)cc1OCC`: 18.5%; for `CCCCCCCCCCCCCCCC[N+](C)(C)CCN(Cc1ccc(OC)cc1)c1ncccn1.[Br-]`: -61.5%.
The result for `COc1ccc(OC)c(/C=N/NC(=O)CNC(=O)c2ccc(S(=O)(=O)N3CCCC3)cc2)c1` reads -18.4%; that for `COc1ccc(N2CC(C(=O)NCc3nnnn3-c3ccc(C)c(C)c3)CC2=O)cc1` (stereo not shown), 11%.
For the molecule `COc1ccc(-c2cnnc(N/N=C/c3ccc(OC)c(OC)c3)n2)cc1`, the “hERG current change (%, negative = inhibition) at 1uM” value came out at 2.27%.
On to `CCCn1c(SCC(=O)N2CCCCC2)nnc1-c1ccco1`, for which the “hERG current change (%, negative = inhibition) at 1uM” value amounted to 10.3%.
As to `CCCn1nc(NC(=O)c2cccs2)c2cc3ccc(C)cc3nc21`, the “hERG current change (%, negative = inhibition) at 1uM” value was found to be 14.7%.
On to `CCCCn1c(SCC(=O)NCc2ccccc2)nc2ccc(N3CCOCC3)cc2c1=O`, for which the “hERG current change (%, negative = inhibition) at 1uM” value was -8.59%.
The result for `C/C=C/Cn1c(SCc2ccccc2)nc2c1c(=O)[nH]c(=O)n2C` reads 8.77%; that for `CCn1nc(NS(=O)(=O)c2ccccc2)c2cc3ccccc3nc21`, 11.9%.
The result for `Cc1ccccc1NC(=O)C1CC(=O)OC12CCOC(C)(C)C2` (stereo not shown) reads 10.3%; that for `CCOC(=O)C1=C(C)NC(=O)C(C#N)C1c1ccncc1` (stereo not shown), -1.54%; that for `CCc1cccc(NC(=O)c2ccc(Br)o2)c1`, -12.2%.
As to `CCOC(=O)C1CCN(C(=O)CN2C(=O)c3cccnc3Oc3ccc(C)cc32)CC1`, the “hERG current change (%, negative = inhibition) at 1uM” value was -3.14%.
`O=C(Nc1ccc(F)cc1F)N1CCC(c2nc3ccccc3o2)CC1`: the “hERG current change (%, negative = inhibition) at 1uM” value is listed as 2.73%.
The result for `C=CCc1c(C)[nH]c(=O)[nH]c1=O` reads 10.4%; that for `O=C(Nc1ccc(C(=O)N2CCCCC2)cc1)c1ccc([N+](=O)[O-])cc1`, 9.11%.
The result for `Cc1cc(C)n2nc(C(=O)NNC(=O)c3ccccc3)nc2n1` reads 9.78%; that for `CCCN(CCC)S(=O)(=O)c1ccc(C(=O)Nc2cccnc2)cc1`, 16.2%; that for `COCC1CCCCC1OS(N)(=O)=O` (stereo not shown), 8.97%.
The same measure for `Cc1cccc(C)c1NC(=O)/C(C#N)=C/c1ccsc1`: 13.1%; for `COc1ccc(C2(c3ccc(OC)cc3)NC(=O)NC2=O)cc1`: 8.6%; for `O=C(CC1SC2=NCCN2C1=O)Nc1ccc(Br)cc1` (stereo not shown): 7.38%.
